Assay results as given in article PMC12040169 (PLOS Biology, 2025).
The other results are listed elsewhere or left out.

system: T1, C. trachomatis L2/434/Bu expressing GFP (CTL2-GFP); design: species or system HeLa; C. trachomatis total inclusion area by high-content imaging, normalised to DMSO; details: total inclusion area; 28.5 h, 10 µM; inhibitor
T1 construct: L2/434/Bu GFP intracellular growth in HeLa cells
In short: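 Post-fluorescence-read fixation, DNA staining with Hoechst and high-content imaging; GFP inclusion area and number per well, and nuclei counts, used as proxies for bacterial growth and host viability.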

SMILES	% of control remaining
O=C(c1cccs1)N1C[C@@H]2CCCCN(C3CCOCC3)[C@@H]2C1 [CBK285503]	93.0069
Cn1c(COc2ccccc2)nnc1SCC(=O)c1cccc([N+](=O)[O-])c1 [CBK268397]	88.3922
CC(C)(CN)CN(Cc1ccccc1C(F)(F)F)C(=O)Nc1c(F)cccc1F [CBK026822C]	76.4004
CC(=O)Nc1cccc(-c2cn3ccnc3c(N3CCN(C)CC3)n2)c1 [CBK037930]	104.916
CC(C)(C)NCC(O)CO/N=C(/c1ccncc1)c1ccc(Br)cc1 (stereo not drawn) [CBK023914G]	87.1622
Cc1ccn(CCNCc2cc(-c3ccc(Cl)cc3)c[nH]c2=O)n1 [CBK284727]	77.3668
CN1CCOCC(CNC(=O)c2ccc(-c3ccccc3CO)cc2)C1 (stereo not drawn) [CBK307601]	74.2377
CCOc1cc(/C=N/NC(=O)c2cncc(Br)c2)c(Br)c(Br)c1O [CBK261386]	93.2814
Cc1ccccc1OC(C)C(=O)Nc1ccccc1C(=O)N1CCOCC1 (stereo not drawn) [CBK269753]	90.2542
O=C(CSc1nnc(COc2ccc(Br)cc2)o1)OC1CCCCC1 [CBK027482]	94.6893
CC(C)(C)c1ccc(N(C2CCNCC2)S(=O)(=O)c2cccc(C(F)(F)F)c2)cc1 [CBK165056T]	29.5617
C[C@H]1CN2C[C@H](O)CC2CN1Cc1cccn1Cc1ccccc1F (stereo partly drawn) [CBK285165]	84.5218
Cc1ccc(S(=O)(=O)NCCc2cn3ccc(C)cc3n2)cc1 [CBK287630]	68.7683
Oc1ccc(-n2ncc(-c3ccc(F)cc3F)n2)cc1 [CBK112736]	98.5464
Cc1cc(NC(=O)NC2CCSc3ccccc32)no1 (stereo not drawn) [CBK259296]	8.826
CC(C)Nc1nccnc1SCCN(C)C [CBK105290]	98.7417
CC(=O)Nc1ccc(S(=O)(=O)/N=C(\Nc2nc(C)cc(C)n2)Nc2ccccc2F)cc1 [CBK266134]	92.758
Cc1nc2c(c(=O)[nH]1)CCN(Cc1[nH]c3ccccc3c1C)C2 [CBK283995]	96.2352
Cn1ncc(N2CCN(C(=O)CCCOc3ccccc3)CC2)cc1=O [CBK306937]	59.5146
CCn1cc(-c2cncn2CC(C)n2nc(C)cc2C)cn1 (stereo not drawn) [CBK281775]	111.543
CC(C)(CO)C(O)C(=O)NC1CCCC(C(=O)O)C1 (stereo not drawn) [CBK286609]	79.2274

SMILES	% of control remaining
Cc1cc(NC(=O)c2cc(C)oc2C)no1 [CBK058081]	49.9255
N#CCCCN1CCC(Oc2cncc(OCc3ccc(Cl)c(Cl)c3)n2)C1 (stereo not drawn) [CBK084436]	18.3894
O=C(Cc1ccccc1)N1CCN(c2ncccn2)CC1 [CBK144518]	86.7329
S=C(NCCc1ccccc1)Nc1ccc2c(c1)OCCO2 [CBK267048]	96.4974
O=C(COc1ccc(Br)cc1C(=O)O)NCCc1ccccc1 [CBK286796]	90.0244
NCC(O)CNC(=O)c1cc(-c2ccc(Cl)cc2)[nH]n1 (stereo not drawn) [CBK160977]	95.611
Cc1ccccc1NC(=O)Nc1cccc(F)c1 [CBK105831]	89.3215
CSc1ncc(Cl)c(C(=O)Nc2ccc(S(=O)(=O)N3CCOCC3)cc2)n1 [CBK268775]	77.7619
Cc1cc(NS(=O)(=O)c2ccc(Cl)c([N+](=O)[O-])c2)n(C)n1 [CBK067259]	106.269
Cc1ccc(-c2cc(=O)c3cc(OCC(=O)Nc4sc5c(c4C#N)CCCC5)ccc3o2)cc1 [CBK269062]	109.497
Cc1noc(NS(=O)(=O)c2ccc(NC(=O)CCN3C(=O)c4ccccc4C3=O)cc2)c1C [CBK264091]	28.9465
COCCNC(=O)c1cnn2c(C)c(Cc3cccc(C#N)c3)c(C)nc12 [CBK162096]	88.9332
CN(CC(=O)Nc1cnc(-c2ccc(F)cc2)c(-c2ccco2)n1)S(=O)(=O)c1ccccc1 [CBK037214]	143.212
CCCNc1nc(-c2ccc(SC)cc2)cn2ccnc12 [CBK066619]	105.378
CCOC(=O)c1ncoc1-c1ccc(Cl)cc1Cl [CBK020578]	15.2996
Cc1cc(C)n(CC(C)CNC(=O)NCCN2CCCCCC2=O)n1 (stereo not drawn) [CBK305389]	93.703
C=CCNC(=O)Cn1cccc2cc(-c3ccc(OC)cc3)nc1-2 [CBK285348]	111.95
COC(=O)c1c(NC(=O)CSc2nc[nH]n2)sc2c1CCCC2 [CBK267222]	108.765
Cc1csc(NC(=O)CN2CCOC(c3ccc(F)cc3)C2)n1 (stereo not drawn) [CBK304703]	84.8255
CCOC(=O)CC1C(=O)NCCN1Cc1ccoc1 (stereo not drawn) [CBK270066]	77.1739
Cc1nc2ccc(NC(=O)CCn3nc(C)c(Cl)c3C)cc2s1 [CBK281634]	96.3016

SMILES	% of control remaining
CC(=O)Nc1ccc(S(=O)(=O)N2CCN(c3ccc([N+](=O)[O-])cc3C(F)(F)F)CC2)cc1 [CBK264944]	90.6554
CC(C)(CC(=O)O)CC(=O)Nc1ccc(N2CCCC2=O)cc1 [CBK299787]	87.7596
FC(F)(F)c1ccnc(OCc2cccnc2)c1 [CBK115784]	55.6882
c1ccc(OCCN2CCCN(c3nccc(OCC4COc5ccccc5O4)n3)CC2)cc1 (stereo not drawn) [CBK083980]	76.0681
Cc1ccc2nc(-c3ccc(NC(=O)CSc4nnc(C)s4)cc3)sc2c1 [CBK266185]	164.85
O=S(=O)(CC(CN1CCCCC1)N1CCCCC1)c1ccc2ccccc2c1 (stereo not drawn) [CBK267087]	79.0712
COC(=O)c1cc(NC(=O)OC(C)(C)C)ccc1O [CBK016529]	55.0513
Cc1cc(COC(=O)Nc2ccc(Cl)cc2)no1 [CBK086560]	70.9517
CCOc1ccc(-c2ccnc(N3CCN(CC)CC3)n2)cc1C(=O)O [CBK307697]	74.2557
N=C(N)NCc1ccc(Cl)cc1 [CBK002260]	99.6404
Nc1ccc(Oc2ccc3nc4c5cc(I)ccc5c5ccc(I)cc5c4nc3c2)cc1 [CBK261978]	71.9706
O=C1NC2CS(=O)(=O)CC2N1Cc1ccccc1 (stereo not drawn) [CBK009306]	77.0203
Nc1nnc(Sc2nccnc2N2CCCC2)s1 [CBK093804]	100.415
Nc1ncnc2c1nc(SCc1ccccc1)n2Cc1ccccc1 [CBK288181]	97.6015
NC(=O)[C@@H]1C[C@@H](O)[C@H](O)[C@H]2[C@@H]1N(c1ccc(Cl)cc1)C(=S)N2CC1CCCCC1 [CBK288933]	103.282
CCN(Cc1ccccc1)C(=O)Nc1ccc2c(c1)OCCO2 [CBK155231]	110.388
O=C(CN1C(=O)c2ccccc2S1(=O)=O)Nc1ccccc1C(=O)N1CCOCC1 [CBK266975]	116.048
C[C@H](NC(=O)C1CCN(C(=O)OC(C)(C)C)CC1)C(=O)O [CBK286730]	70.0218
COCC(=O)N1CCN(C(=O)c2cccs2)[C@@H](C(=O)OC)C1 [CBK289614]	82.3606
COc1cc(CNc2cncc(-c3ccc(F)cc3F)n2)cc(OC)c1OC [CBK065826]	79.2604
O=C(CCc1ccccc1)NNC(=O)C1C2C=CC(C2)C1C(=O)O (stereo not drawn) [CBK267541]	112.973

SMILES	% of control remaining
CCCc1ccc(S(=O)(=O)NCC(=O)OCC)cc1 [CBK034429]	61.1116
O=S(=O)(Oc1ccc(-c2cnc3ccccc3n2)cc1)c1ccccc1 [CBK261104]	106.496
CCOC(=O)c1c(NC(=O)CN2CCCCC2)sc2c1CCCC2O (stereo not drawn) [CBK261644]	98.1406
CC[C@H]1C[N@@]2CC[C@H]1C[C@@H]2CNC(=O)Nc1cccc(C#N)c1 [CBK288748]	105.782
CCc1cc(CNC(=O)C2CN(Cc3ccc(Cl)cc3)C2)on1 [CBK281564]	86.1014
Fc1ccc(CN2CCC3(C2)c2[nH]c4ccccc4c2CCN3Cc2ccc(F)cc2)cc1 (stereo not drawn) [CBK059467]	96.1531
Cc1cc(C[C@@H]2CCC[C@H]2NCc2ccncc2)on1 [CBK284934]	91.3974
O=C1CC2(CCN(C(=O)c3ccccc3F)CC2)Oc2c(Cl)cc(Cl)cc21 [CBK156453]	92.7831
C/C(C(=O)O)=C(/C)C(=O)N1CCC2(CC1)NCCc1c2[nH]c2ccc(C)cc12 [CBK047026]	91.4726
O=C(CN1CCC(NC(=O)c2cccs2)CC1)NCc1ccccc1F [CBK304901]	79.1675
O=C(CSc1ccccc1)Nc1cccc(NC(=O)c2cccs2)c1 [CBK266788]	98.4725
O=C(Nc1nccs1)c1c(O)n(Cc2ccccc2)c2ccccc2c1=O [CBK291173]	112.134
Cc1ccc(-c2ccc(CCC(=O)O)n2NC(N)=S)cc1 [CBK265870]	145.798
O=C(c1ccc2ncccc2c1)N1CCc2ccccc21 [CBK200403]	113.768
Cc1cc(Br)cc(C)c1OCCNCCN(C)C [CBK267808G]	69.2831
FC(F)(F)c1nc2ccccc2nc1SCCc1ccccc1 [CBK107204]	100.309
CCC(CC)C(=O)N1CCC(CNc2cnc(-c3ccc(S(C)(=O)=O)cc3)cn2)CC1 [CBK172021]	70.2048
O=C(C1CC1)N1CCCC(c2nc(-c3cccs3)no2)C1 (stereo not drawn) [CBK281944]	111.061
